Test results published in PubChem BioAssay AID485281 (National Center for Advancing Translational Sciences (NCATS), 2010).
In all, about 350,000 compounds went through this assay and about 260 (0.074%) were called active. Inconclusive means that the source gave no clear call. Such entries were picked first, then a sample of the others. Calls come from the whole dose curve; as a rule, active = well fitted inhibition curve with a large enough effect; inconclusive = small, poorly fitted or top-dose-only effect; inactive = no such curve, though single readings can be large or run the other way. A potency beside an inconclusive call is a rough fit, not a confirmed value.

target: Ferritin light chain (Equus caballus) (UniProt P02791); assay: qHTS Assay for Identification of Novel General Anesthetics; conditions: apoferritin/1-aminoanthracene competitive binding, fluorescence; activity change, negative = displacement: at 77.5 µM (top of the series); note: nearly all actives have a fitted effect of over 20% in size
Procedure, shortened: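 Steps: apoferritin (10 uM) was premixed with half-saturated 1-AMA in PBS, compounds were pin-transferred, plates stood 10 min at room temperature, fluorescence was read at 380/535 nm, and curves were fitted with a Hill equation.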
% is set by controls: 0 for no effect and ±100 for the full control effect; potency is the fitted concentration of half-maximal effect; tags give direction and shape of the fitted curve.

Chain of UniProt P02791 (P02791 whole entry, looked up): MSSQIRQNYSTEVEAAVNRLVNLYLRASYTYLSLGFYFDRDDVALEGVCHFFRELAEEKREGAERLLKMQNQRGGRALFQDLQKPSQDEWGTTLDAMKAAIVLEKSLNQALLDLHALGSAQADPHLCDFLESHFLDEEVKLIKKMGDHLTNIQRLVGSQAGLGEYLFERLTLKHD

Q: CCc1ccccc1NC(=O)CN1C(=O)c2cccnc2Oc2ccc(Cl)cc21 was tested. Which Potency did it give?
A: Its Potency is inconclusive: 14.1 µM [inhibitor, partial curve].

Q: How did the Potency turn out when c1ccc2sc(-c3ccc4c(c3)OCO4)nc2c1 was run?
A: The Potency was inconclusive: 39.8 µM [inhibitor, partial curve].

Q: Cc1cc(NC(=O)C2CC(c3cccc(Br)c3)=NO2)no1 (stereo not given) was tested. Which Potency did it give?
A: Its Potency is inconclusive: 35.5 µM [inhibitor, partial curve].

Q: Which “activity change, negative = displacement” value does the source give for O=C(CSCc1ccccc1F)NCc1ccc(F)cc1 here?
A: Its value is inactive: -22.6%.

Q: Clc1ccc2oc(-c3cccnc3)nc2c1 was tested. Which “activity change, negative = displacement” value did it give?
A: Its value is inactive: -11.6%.

Q: Which Potency does the source give for CCOc1ccc2c(c1)c(=O)c(S(=O)(=O)c1ccc(C)cc1)cn2CC here?
A: Its Potency is inconclusive: 50.1 µM [inhibitor, single point].

Q: How did the Potency turn out when CC12CCC(C(=O)N(CSC(=S)N/N=C\c3ccccc3Cl)C1=O)C2(C)C (stereo not given) was run?
A: Its Potency is inconclusive: 10 µM [inhibitor, partial curve].

Q: COc1cc(O)c(C(CCN2CCN(c3ccccc3)CC2)c2ccc(N(C)C)cc2)c(OC)c1 (stereo not given) was tested. Which Potency did it give?
A: Its Potency is “inactive”.

Q: How did the Potency turn out when N#CC1=C(N)NC(SCC(=O)c2ccc(Cl)cc2)=C(C#N)C12CCCC2 was run?
A: Its Potency is inconclusive: 31.6 µM [inhibitor, partial curve].

Q: How did the Potency turn out when CCc1ccc(NC(=O)N2CCc3ccccc3C2)cc1 was run?
A: The Potency was inconclusive: 28.2 µM [inhibitor, partial curve].

Q: How did the Potency turn out when N#Cc1c(-c2ccccc2)nc(SCC(=O)Nc2ccccc2F)[nH]c1=O was run?
A: Its Potency is inconclusive: 35.5 µM [inhibitor, partial curve].

Q: For O=C(CCS(=O)(=O)c1ccccc1)NC12CC3CC(CC(C3)C1)C2, which Potency is on record?
A: The Potency was inconclusive: 12.6 µM [inhibitor, partial curve].

Q: Which Potency does the source give for Cn1c(-c2sc3cc(C(F)(F)F)cnc3c2-c2ccccc2)n[nH]c1=S here?
A: The Potency was inconclusive: 17.8 µM [inhibitor, partial curve].

Q: For CC(=O)c1cccc(NC(=O)N2CCCCCC2)c1, which Potency is on record?
A: Its Potency is inconclusive: 25.1 µM [inhibitor, partial curve].

Q: For O=[N+]([O-])c1cc(C(F)(F)F)ccc1NCCNC(=S)Nc1ccc(Cl)cc1, which Potency is on record?
A: Its Potency is inconclusive: 11.2 µM [inhibitor, partial curve].

Q: For C[n+]1c(/C=C/c2ccc(O)cc2)ccc2ccccc21, which “activity change, negative = displacement” value is on record?
A: Its value is inactive: -4.63%.

Q: With Cc1cccc(-n2c(C)nc3sccc3c2=O)c1 as the compound, how does the Potency read?
A: The Potency was inconclusive: 35.5 µM [inhibitor, partial curve].

Q: Which Potency does the source give for COc1ccc(N2CCC(CNC(=S)Nc3cc(C)cc(C)c3)C2)cc1 (stereo not given) here?
A: The Potency was inconclusive: 14.1 µM [inhibitor, partial curve].

Q: For COc1ccc(N2C(=O)/C(=C\c3ccco3)N=C2SCC(N)=O)cc1Cl, which Potency is on record?
A: The Potency was inconclusive: 15.8 µM [inhibitor, partial curve].

Q: O=C(NC1CCCCCC1)c1ccc2c(c1)sc1nc(-c3ccccc3)cn12 was tested. Which “activity change, negative = displacement” value did it give?
A: The value was inactive: 3.45%.

Q: With O=C(Cn1ncc(N2CCCC2)c(Cl)c1=O)c1ccc(Cl)cc1 as the compound, how does the Potency read?
A: Its Potency is inconclusive: 22.4 µM [inhibitor, partial curve].

Q: How did the Potency turn out when Clc1ccc2nc(SCc3nnc(-c4ccccc4)o3)[nH]c2c1 was run?
A: The Potency was inconclusive: 20 µM [inhibitor, partial curve].

Q: Which Potency does the source give for CCN(C(=O)CCN1C(=O)/C(=C/c2ccccc2)SC1=S)C1CCS(=O)(=O)C1 (stereo not given) here?
A: The Potency was inconclusive: 31.6 µM [inhibitor, partial curve].

Q: Which “activity change, negative = displacement” value does the source give for O=C(C1CCC(Cn2c(=O)c3sccc3n(Cc3cccc(F)c3)c2=O)CC1)N1CCCCC1 (stereo not given) here?
A: The value was inactive: 49.5%.

Q: For O=C1CCC/C(=N\NC(=O)c2ccc(COc3ccccc3-c3ccccc3)cc2)C1, which Potency is on record?
A: The Potency was inconclusive: 39.8 µM [inhibitor, single point].

Q: Which Potency does the source give for CC(C)(C)c1nc(SCC(=O)NNC(=O)c2ccccc2)c2ccccc2n1 here?
A: The Potency was inconclusive: 25.1 µM [inhibitor, single point].

Q: For Cc1noc(C)c1-c1ccc2ncnc(NCc3ccco3)c2c1, which “activity change, negative = displacement” value is on record?
A: Its value is inactive: -0.255%.

Q: Cc1cc(C(=O)CSc2nc(N)cc(=O)[nH]2)c(C)n1CCc1ccc(F)cc1 was tested. Which “activity change, negative = displacement” value did it give?
A: Its value is inactive: -17.9%.

Q: For CCOc1ccc(OCC(=O)Nc2nnc3n2CCS3)cc1, which “activity change, negative = displacement” value is on record?
A: Its value is inactive: -1.9%.

Q: For COC1C(O)C(CO)OC1n1c(Br)nc2c(=O)[nH]c(N)nc21 (stereo not given), which “activity change, negative = displacement” value is on record?
A: Its value is inactive: 6.6%.

Q: How did the Potency turn out when CCc1ccc(Sc2cc(C(=O)NC(C)CC)c3ccccc3n2)cc1 (stereo not given) was run?
A: The Potency was inconclusive: 14.1 µM [inhibitor, partial curve].

Q: Cc1ccc(CSc2nc(-c3ccccc3)c(C#N)c(=O)[nH]2)cc1 was tested. Which Potency did it give?
A: Its Potency is inconclusive: 50.1 µM [inhibitor, single point].

Q: How did the Potency turn out when C(=N\N=C\c1cccs1)/c1cccs1 was run?
A: The Potency was inconclusive: 25.1 µM [inhibitor, partial curve].

Q: For CCn1c(SCC(=O)Nc2sc3c(c2C(N)=O)CCC(C)C3)nnc1-c1ccco1 (stereo not given), which Potency is on record?
A: The Potency was inconclusive: 39.8 µM [inhibitor, partial curve].

Q: With COc1cc(S(=O)(=O)Nc2cc(C)cc(C)c2)ccc1F as the compound, how does the Potency read?
A: The Potency was inconclusive: 31.6 µM [inhibitor, single point].

Q: How did the Potency turn out when CC1(C)C(=O)OC(c2ccco2)C(C)(C)C1=O (stereo not given) was run?
A: Its Potency is inconclusive: 12.6 µM [inhibitor, full curve].

Q: For O=C(Nc1ccc(N2CCCCC2)cc1)c1cncc(Br)c1, which Potency is on record?
A: Its Potency is inconclusive: 11.2 µM [inhibitor, partial curve].

Q: With Cn1c(CNc2cccc(Cl)c2)nnc1SCC(=O)OC1CCCCC1 as the compound, how does the Potency read?
A: The Potency was inconclusive: 31.6 µM [inhibitor, partial curve].

Q: Cc1cc2ccccc2n1CCNC(=O)c1cccc(Cl)c1 was tested. Which “activity change, negative = displacement” value did it give?
A: Its value is inactive: -15.3%.

Q: For CC(=O)N/N=C(\C)c1ccc(Br)cc1Br, which Potency is on record?
A: Its Potency is inconclusive: 31.6 µM [inhibitor, single point].

Q: How did the Potency turn out when Cc1cccc(C)c1NC(=O)/C(=C/c1ccco1)c1ccccc1 was run?
A: Its Potency is inconclusive: 22.4 µM [inhibitor, partial curve].

Q: Which “activity change, negative = displacement” value does the source give for CN(C)CCCN1C(=O)c2cccc3c(Br)ccc(c23)C1=O here?
A: The value was inactive: -8.02%.

Q: Which Potency does the source give for O=C(Nc1ccccc1N1CCOCC1)c1ccc2c(c1)C(=O)N(Cc1ccncc1)C2=O here?
A: Its Potency is inconclusive: 35.5 µM [inhibitor, single point].

Q: Which “activity change, negative = displacement” value does the source give for C#CCNC(=O)C1=C[C@@H](c2ccc(C#C)cc2)[C@H](CCCO)[C@@H](OCC)O1 here?
A: The value was inactive: -4.98%.

Q: For COc1cc(/C=C(\C#N)C(N)=O)ccc1OCc1c(C)no[n+]1[O-], which “activity change, negative = displacement” value is on record?
A: The value was inactive: -2.3%.
